The list shows a part of the results.
Key:
HSkMC = human skeletal muscle cells; assay: cytotoxicity call (relative viability < 0.9); conditions: 10 µM
HepG2 = assay: cytotoxicity call (relative viability < 0.9); conditions: 10 µM
S. aureus RN4220 = assay: growth inhibition call (relative growth <= 0.2); conditions: 50 µM

Row | SMILES | cytotoxicity call (HSkMC) | cytotoxicity call (HepG2) | growth inhibition call (S. aureus RN4220)
1 | COc1ccc(S(=O)(=O)Nc2ccc3c(c2)CC(=O)N([C@H](C)CO)C[C@H](C)[C@@H](CN(C)S(C)(=O)=O)O3)cc1 | inactive | inactive | inactive
2 | O=C[C@H](O)[C@@H](O)[C@H](O)[C@H](O)CO | inactive | inactive | inactive
3 | C[C@@H]1CCCCO[C@@H](CN(C)S(=O)(=O)c2ccc(Cl)cc2)[C@@H](C)CN([C@@H](C)CO)C(=O)c2cc(NS(=O)(=O)c3ccc(Cl)cc3)ccc2O1 | inactive | inactive | inactive
4 | C[C@@H]1CCCCO[C@H](CN(C)Cc2ccc(C(F)(F)F)cc2)[C@H](C)CN([C@H](C)CO)C(=O)c2cc(NC(=O)Nc3ccc(F)cc3)ccc2O1 | inactive | active | inactive
5 | COc1cccc(S(=O)(=O)N(C)C[C@@H]2Oc3ncc(C#CCC(C)C)cc3C(=O)N([C@@H](C)CO)C[C@H]2C)c1 | inactive | inactive | inactive
6 | O=C(N[C@H]1CC[C@H](CCNS(=O)(=O)c2ccccc2)O[C@H]1CO)c1cnccn1 | inactive | inactive | inactive
7 | C[C@H](CO)N1C[C@H](C)[C@@H](CN(C)C(=O)CCC(F)(F)F)OCc2ccccc2-c2c(n(C)c3ccccc23)C1=O | inactive | inactive | inactive
8 | C[C@@H]1CN([C@H](C)CO)C(=O)Cc2cc(NC(=O)Cn3cnnn3)ccc2O[C@@H]1CN(C)S(=O)(=O)c1ccccc1 | inactive | inactive | inactive
9 | C[C@@H]1CCCCO[C@@H](CN(C)C(=O)Nc2ccc3c(c2)OCO3)[C@H](C)CN([C@H](C)CO)C(=O)c2cc(NC(=O)c3ccccc3)ccc2O1 | inactive | inactive | inactive
